# Measured values as given in the supplement of paper PMC8728848.
# The other results are listed elsewhere or left out.
# Assays:
# Assay in all cases: glycan array binding signal (z-score within array); higher = stronger binding
# Details in all cases: glycan notation: IUPAC condensed, linker removed
# [1] = molecular target: GalNAc(b1-4)GlcNAc
# Method in brief: (§1)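 Glycan array data came from 3228 arrays in the Consortium for Functional Glycomics database, and only arrays with an available protein sequence were kept. Glycan names were put into IUPAC-condensed notation, and columns mapping to the same glycan were averaged. The binding signal is a within-array Z-score, averaged across arrays of one protein sequence run at different concentrations or buffers and across linkers. A negative Z-score can be read as non-binding.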
# [2] = molecular target: GalNAc(b1-4)GlcNAc(b1-2)Man
# Method in brief: as §1
# [3] = molecular target: GalNAc(b1-4)GlcNAc(b1-2)Man(a1-3)[GalNAc(b1-4)GlcNAc(b1-2)Man(a1-6)]Man(b1-4)GlcNAc(b1-4)GlcNAc
# Method in brief: as §1
# [4] = molecular target: GalNAc(b1-4)GlcNAc(b1-3)GalNAc(b1-4)GlcNAc
# Method in brief: as §1
# [5] = molecular target: GalNAc(b1-4)GlcNAc6S
# Method in brief: as §1
# [6] = molecular target: GalNAc(b1-6)GalNAc
# Method in brief: as §1
# [7] = molecular target: GalNAc3S(b1-4)GlcNAc
# Method in brief: as §1
# [8] = molecular target: GalNAc3S(b1-4)GlcNAc3S
# Method in brief: as §1
# [9] = molecular target: GalNAc3S(b1-4)[Fuc(a1-3)]GlcNAc
# Method in brief: as §1
# [10] = molecular target: GalNAc4S6S(b1-4)GlcNAc
# Method in brief: as §1
# [11] = molecular target: GalNAc6S(b1-4)GlcNAc
# Method in brief: as §1
# [12] = molecular target: Glc(a1-4)Glc
# Method in brief: as §1
# [13] = molecular target: Glc(a1-4)Glc(a1-4)Glc(a1-4)Glc
# Method in brief: as §1
# [14] = molecular target: Glc(a1-6)Glc(a1-6)Glc
# Method in brief: as §1
# [15] = molecular target: Glc(a1-6)Glc(a1-6)Glc(a1-6)Glc
# Method in brief: as §1
# [16] = molecular target: Glc(b1-4)Glc
# Method in brief: as §1
# [17] = molecular target: Glc(b1-6)Glc
# Method in brief: as §1
# [18] = molecular target: GlcA(b1-3)Gal
# Method in brief: as §1
# [19] = molecular target: GlcA(b1-3)GlcNAc
# Method in brief: as §1
# [20] = molecular target: GlcA(b1-6)Gal
# Method in brief: as §1
# [21] = molecular target: GlcA3S(b1-3)Gal(b1-4)GlcNAc(b1-2)Man
# Method in brief: as §1
# [22] = molecular target: GlcA3S(b1-3)Gal(b1-4)GlcNAc(b1-3)Gal(b1-4)Glc
# Method in brief: as §1
# [23] = molecular target: GlcNAc(a1-3)Gal(b1-4)GlcNAc
# Method in brief: as §1
# [24] = molecular target: GlcNAc(a1-4)Gal(b1-3)GlcNAc
# Method in brief: as §1
# [25] = molecular target: GlcNAc(a1-4)Gal(b1-4)GalNAc
# Method in brief: as §1
# [26] = molecular target: GlcNAc(a1-4)Gal(b1-4)GlcNAc
# Method in brief: as §1
# [27] = molecular target: GlcNAc(a1-4)Gal(b1-4)GlcNAc(b1-3)Gal(b1-4)Glc
# Method in brief: as §1
# [28] = molecular target: GlcNAc(a1-4)Gal(b1-4)GlcNAc(b1-3)Gal(b1-4)GlcNAc
# Method in brief: as §1
# [29] = molecular target: GlcNAc(a1-4)Gal(b1-4)GlcNAc(b1-3)Gal(b1-4)GlcNAc(b1-3)Gal(b1-4)GlcNAc
# Method in brief: as §1
# [30] = molecular target: GlcNAc(a1-4)Gal(b1-4)GlcNAc(b1-3)Gal(b1-4)[Fuc(a1-3)]GlcNAc(b1-3)Gal(b1-4)[Fuc(a1-3)]GlcNAc
# Method in brief: as §1
# [31] = molecular target: GlcNAc(a1-6)Gal(b1-4)GlcNAc
# Method in brief: as §1
# [32] = molecular target: GlcNAc(b1-2)Gal(b1-3)GalNAc
# Method in brief: as §1
# [33] = molecular target: GlcNAc(b1-2)Man(a1-3)[GlcNAc(b1-2)Man(a1-6)]Man(b1-4)GlcNAc(b1-4)GlcNAc
# Method in brief: as §1
# [34] = molecular target: GlcNAc(b1-2)Man(a1-3)[GlcNAc(b1-2)Man(a1-6)]Man(b1-4)GlcNAc(b1-4)[Fuc(a1-6)]GlcNAc
# Method in brief: as §1
# [35] = molecular target: GlcNAc(b1-2)Man(a1-3)[GlcNAc(b1-4)][GlcNAc(b1-2)Man(a1-6)]Man(b1-4)GlcNAc(b1-4)GlcNAc
# Method in brief: as §1
# [36] = molecular target: GlcNAc(b1-2)Man(a1-3)[GlcNAc(b1-4)][GlcNAc(b1-2)Man(a1-6)]Man(b1-4)GlcNAc(b1-4)[Fuc(a1-6)]GlcNAc
# Method in brief: as §1
# [37] = molecular target: GlcNAc(b1-2)[GlcNAc(b1-4)]Man(a1-3)[GlcNAc(b1-2)Man(a1-6)]Man(b1-4)GlcNAc(b1-4)GlcNAc
# Method in brief: as §1
# [38] = molecular target: GlcNAc(b1-2)[GlcNAc(b1-4)]Man(a1-3)[GlcNAc(b1-4)][GlcNAc(b1-2)Man(a1-6)]Man(b1-4)GlcNAc(b1-4)GlcNAc
# Method in brief: as §1
# [39] = molecular target: GlcNAc(b1-2)[GlcNAc(b1-4)]Man(a1-3)[GlcNAc(b1-4)][GlcNAc(b1-2)[GlcNAc(b1-6)]Man(a1-6)]Man(b1-4)GlcNAc(b1-4)GlcNAc
# Method in brief: as §1
# [40] = molecular target: GlcNAc(b1-2)[GlcNAc(b1-4)]Man(a1-3)[GlcNAc(b1-4)][GlcNAc(b1-2)[GlcNAc(b1-6)]Man(a1-6)]Man(b1-4)GlcNAc(b1-4)[Fuc(a1-6)]GlcNAc
# Method in brief: as §1
# [41] = molecular target: GlcNAc(b1-2)[GlcNAc(b1-6)]Man(a1-6)[GlcNAc(b1-2)Man(a1-3)]Man(b1-4)GlcNAc(b1-4)GlcNAc
# Method in brief: as §1
# [42] = molecular target: GlcNAc(b1-2)[GlcNAc(b1-6)]Man(a1-6)[GlcNAc(b1-2)Man(a1-3)]Man(b1-4)GlcNAc(b1-4)[Fuc(a1-6)]GlcNAc
# Method in brief: as §1
# [43] = molecular target: GlcNAc(b1-2)[GlcNAc(b1-6)]Man(a1-6)[GlcNAc(b1-4)][GlcNAc(b1-2)Man(a1-3)]Man(b1-4)GlcNAc(b1-4)GlcNAc
# Method in brief: as §1
# [44] = molecular target: GlcNAc(b1-3)Fuc
# Method in brief: as §1
# [45] = molecular target: GlcNAc(b1-3)Gal
# Method in brief: as §1
binder,measurement,setting,value
"LSL-150 (Laetiporus sulphureus), Q7Z8V1 (protein) MTDIYIPPEGLYFRLLGFASRQVIFARNSPSPDVGLSPVNDQATDQYFSLIYGTGEHAGLYAIKSKATGKVLFSRRPAEPYVGQIDGDGRYPDNWFKIEPGKTYLSKYFRLVQPSTGTALVSRTHLQPYFWNHPQTEVFDDQYFTFLFEDHHHHHH",glycan array binding signal (z-score),[1],-0.197
same,glycan array binding signal (z-score),[2],-0.205
same,glycan array binding signal (z-score),[3],-0.195
same,glycan array binding signal (z-score),[4],-0.202
same,glycan array binding signal (z-score),[5],-0.203
same,glycan array binding signal (z-score),[6],-0.195
same,glycan array binding signal (z-score),[7],-0.201
same,glycan array binding signal (z-score),[8],-0.206
same,glycan array binding signal (z-score),[9],-0.203
same,glycan array binding signal (z-score),[10],-0.204
same,glycan array binding signal (z-score),[11],-0.211
same,glycan array binding signal (z-score),[12],-0.208
same,glycan array binding signal (z-score),[13],-0.199
same,glycan array binding signal (z-score),[14],-0.201
same,glycan array binding signal (z-score),[15],-0.207
same,glycan array binding signal (z-score),[16],-0.205
same,glycan array binding signal (z-score),[17],-0.205
same,glycan array binding signal (z-score),[18],-0.209
same,glycan array binding signal (z-score),[19],-0.206
same,glycan array binding signal (z-score),[20],-0.204
same,glycan array binding signal (z-score),[21],-0.206
same,glycan array binding signal (z-score),[22],-0.122
same,glycan array binding signal (z-score),[23],-0.2
same,glycan array binding signal (z-score),[24],-0.2
same,glycan array binding signal (z-score),[25],-0.207
same,glycan array binding signal (z-score),[26],-0.201
same,glycan array binding signal (z-score),[27],-0.202
same,glycan array binding signal (z-score),[28],-0.043
same,glycan array binding signal (z-score),[29],0.458
same,glycan array binding signal (z-score),[30],-0.199
same,glycan array binding signal (z-score),[31],-0.215
same,glycan array binding signal (z-score),[32],-0.203
same,glycan array binding signal (z-score),[33],-0.205
same,glycan array binding signal (z-score),[34],-0.199
same,glycan array binding signal (z-score),[35],-0.198
same,glycan array binding signal (z-score),[36],-0.207
same,glycan array binding signal (z-score),[37],-0.209
same,glycan array binding signal (z-score),[38],-0.202
same,glycan array binding signal (z-score),[39],-0.212
same,glycan array binding signal (z-score),[40],-0.208
same,glycan array binding signal (z-score),[41],-0.201
same,glycan array binding signal (z-score),[42],-0.208
same,glycan array binding signal (z-score),[43],-0.206
same,glycan array binding signal (z-score),[44],-0.204
same,glycan array binding signal (z-score),[45],-0.195
